The supplement of paper PMC7826260
The list shows a part of the results. Viral Rep nickase domains cut single-stranded DNA in vitro (3 µM enzyme, 1 h, 37 °C); shown is the middle of each 90-letter strand. Values are log2 of uncut reads against the no-enzyme pool; strong cutting gives strongly negative numbers. There is no active / inactive call. Shares of all reads are compared; uncut strands gain when others are lost, and binding without cutting may add a little.

These sequences were tested on T1, Rep nickase domain of maize striate mosaic virus (assay: uncleaved DNA left, log2 of reads against the no-enzyme library (log2 ratio); higher = less cleavage (more negative = more Rep cleavage of the k-mer); sequences stand for … in CTCGTCCG…ACCGGAGA).
T1 sequence (residues 1-117 of Rep, tag left off): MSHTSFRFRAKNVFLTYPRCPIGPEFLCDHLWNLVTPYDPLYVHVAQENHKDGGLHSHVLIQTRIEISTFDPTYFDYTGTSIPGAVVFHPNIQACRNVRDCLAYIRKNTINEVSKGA
Experimental: (§1)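 A pool of 90-nt single-stranded DNAs with seven random bases just before the constant AC of the nick site (name = the seven bases) was cut by 3 µM recombinant His6-SUMO-tagged Rep nickase domain (300 nM DNA, 50 mM HEPES pH 8.0, 50 mM NaCl, 1 mM MnCl2, 1 h, 37 °C, three replicates). Uncut DNA was amplified and sequenced.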
For GTCAGTA, the “uncleaved DNA left (log2)” value was 1.59. CAAATTT was tested, and the “uncleaved DNA left (log2)” value was -2.35. With CTCTTGA the “uncleaved DNA left (log2)” value was -0.987. For ATTAATC, the “uncleaved DNA left (log2)” value was -0.684. In the case of ATTTATC, the “uncleaved DNA left (log2)” value was -0.0418. With ACTGTTA the “uncleaved DNA left (log2)” value was 0.313. In the case of CGGAGGC, the “uncleaved DNA left (log2)” value was 0.061. With GACCTGC the “uncleaved DNA left (log2)” value was -0.586. With TCAAGCT the “uncleaved DNA left (log2)” value was 0.903. For TGGCTGG, the “uncleaved DNA left (log2)” value was 0.56. With TTCACCC the “uncleaved DNA left (log2)” value was -0.0946. In the case of TACGCCC, the “uncleaved DNA left (log2)” value was -0.701. In the case of TTTAGGA, the “uncleaved DNA left (log2)” value was -0.14. GATCTTT was tested, and the “uncleaved DNA left (log2)” value was 1.04. In the case of CCAACCA, the “uncleaved DNA left (log2)” value was -0.497. In the case of TTACTCT, the “uncleaved DNA left (log2)” value was -0.541. TATAAGG was tested, and the “uncleaved DNA left (log2)” value was 1.59. In the case of ATTGTCT, the “uncleaved DNA left (log2)” value was -1.27. TCAGACC was tested, and the “uncleaved DNA left (log2)” value was -0.0801. TGCCCTC was tested, and the “uncleaved DNA left (log2)” value was 0.88. For ACGCATA, the “uncleaved DNA left (log2)” value was -0.75. In the case of AATAAGG, the “uncleaved DNA left (log2)” value was 0.561. In the case of TTCGATT, the “uncleaved DNA left (log2)” value was -0.329. With GGACGGC the “uncleaved DNA left (log2)” value was 2.23. In the case of CCCTTGA, the “uncleaved DNA left (log2)” value was -1.02. In the case of TACGTGG, the “uncleaved DNA left (log2)” value was -0.173. With TATCCAG the “uncleaved DNA left (log2)” value was -1.06. With GTGCGAT the “uncleaved DNA left (log2)” value was -0.0436. In the case of CGTATTG, the “uncleaved DNA left (log2)” value was 0.365. TGCGTAA was tested, and the “uncleaved DNA left (log2)” value was -1.03. In the case of TTTGCCT, the “uncleaved DNA left (log2)” value was -1.18. With ATCGGAA the “uncleaved DNA left (log2)” value was 0.817. In the case of CCGTGTC, the “uncleaved DNA left (log2)” value was -0.622. GTTCCAG was tested, and the “uncleaved DNA left (log2)” value was 0.584. For CACGGAC, the “uncleaved DNA left (log2)” value was 0.999. For CGCACAG, the “uncleaved DNA left (log2)” value was -0.555. For TTGAGCC, the “uncleaved DNA left (log2)” value was -1.05. GACAGGG was tested, and the “uncleaved DNA left (log2)” value was -0.451. TTACTCA was tested, and the “uncleaved DNA left (log2)” value was 0.0677. For CTTCTGC, the “uncleaved DNA left (log2)” value was -0.93.

What follows are sequences tested on T2, Rep nickase domain of porcine circovirus 2 in the same assay as above.
T2 sequence (residues 2-116 of Rep, tag left off): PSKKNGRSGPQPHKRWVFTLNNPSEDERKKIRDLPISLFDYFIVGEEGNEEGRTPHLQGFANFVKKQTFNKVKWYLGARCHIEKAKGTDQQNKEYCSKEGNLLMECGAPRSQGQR
Experimental: as §1
GTCAGTA was tested, and the “uncleaved DNA left (log2)” value was 0.144. CAAATTT was tested, and the “uncleaved DNA left (log2)” value was -2.95. CTCTTGA was tested, and the “uncleaved DNA left (log2)” value was -0.0351. In the case of ATTAATC, the “uncleaved DNA left (log2)” value was 0.0833. In the case of ATTTATC, the “uncleaved DNA left (log2)” value was 0.0431. ACTGTTA was tested, and the “uncleaved DNA left (log2)” value was -0.277. CGGAGGC was tested, and the “uncleaved DNA left (log2)” value was 0.0379. GACCTGC was tested, and the “uncleaved DNA left (log2)” value was -0.0637. With TCAAGCT the “uncleaved DNA left (log2)” value was 0.215. In the case of TGGCTGG, the “uncleaved DNA left (log2)” value was 0.0906. In the case of TTCACCC, the “uncleaved DNA left (log2)” value was -0.42. In the case of TACGCCC, the “uncleaved DNA left (log2)” value was -0.191. TTTAGGA was tested, and the “uncleaved DNA left (log2)” value was 0.162. In the case of GATCTTT, the “uncleaved DNA left (log2)” value was -1.16. For CCAACCA, the “uncleaved DNA left (log2)” value was -0.621. For TTACTCT, the “uncleaved DNA left (log2)” value was -0.418. In the case of TATAAGG, the “uncleaved DNA left (log2)” value was 0.159. In the case of ATTGTCT, the “uncleaved DNA left (log2)” value was -1.29. With TCAGACC the “uncleaved DNA left (log2)” value was 0.118. For TGCCCTC, the “uncleaved DNA left (log2)” value was -0.0215. With ACGCATA the “uncleaved DNA left (log2)” value was -0.0261. In the case of AATAAGG, the “uncleaved DNA left (log2)” value was 0.174. TTCGATT was tested, and the “uncleaved DNA left (log2)” value was -0.598. GGACGGC was tested, and the “uncleaved DNA left (log2)” value was 0.144. For CCCTTGA, the “uncleaved DNA left (log2)” value was -0.117. In the case of TACGTGG, the “uncleaved DNA left (log2)” value was 0.0876. With TATCCAG the “uncleaved DNA left (log2)” value was 0.124. In the case of GTGCGAT, the “uncleaved DNA left (log2)” value was 0.101. CGTATTG was tested, and the “uncleaved DNA left (log2)” value was -0.0896. In the case of TGCGTAA, the “uncleaved DNA left (log2)” value was -0.2. For TTTGCCT, the “uncleaved DNA left (log2)” value was -0.0812. In the case of ATCGGAA, the “uncleaved DNA left (log2)” value was 0.0484. In the case of CCGTGTC, the “uncleaved DNA left (log2)” value was -0.223. In the case of GTTCCAG, the “uncleaved DNA left (log2)” value was 0.019. For CACGGAC, the “uncleaved DNA left (log2)” value was 0.178. CGCACAG was tested, and the “uncleaved DNA left (log2)” value was -0.0202. For TTGAGCC, the “uncleaved DNA left (log2)” value was -0.206. With GACAGGG the “uncleaved DNA left (log2)” value was 0.254. With TTACTCA the “uncleaved DNA left (log2)” value was -0.165. With CTTCTGC the “uncleaved DNA left (log2)” value was 0.095.

What follows are sequences tested on T3, Rep nickase domain of tomato golden mosaic virus in the same assay as above.
T3 sequence (residues 1-124 of Rep, tag left off): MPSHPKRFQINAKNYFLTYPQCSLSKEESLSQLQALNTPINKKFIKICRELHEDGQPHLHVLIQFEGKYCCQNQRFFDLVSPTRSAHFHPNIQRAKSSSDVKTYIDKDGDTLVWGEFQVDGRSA
Experimental: as §1
In the case of GTCAGTA, the “uncleaved DNA left (log2)” value was 0.183. With CAAATTT the “uncleaved DNA left (log2)” value was -2.88. For CTCTTGA, the “uncleaved DNA left (log2)” value was -0.0643. ATTAATC was tested, and the “uncleaved DNA left (log2)” value was -0.049. In the case of ATTTATC, the “uncleaved DNA left (log2)” value was 0.0367. In the case of ACTGTTA, the “uncleaved DNA left (log2)” value was 0.0156. In the case of CGGAGGC, the “uncleaved DNA left (log2)” value was -0.0347. With GACCTGC the “uncleaved DNA left (log2)” value was 0.0028. With TCAAGCT the “uncleaved DNA left (log2)” value was 0.00372. With TGGCTGG the “uncleaved DNA left (log2)” value was 0.0374. For TTCACCC, the “uncleaved DNA left (log2)” value was -0.0965. In the case of TACGCCC, the “uncleaved DNA left (log2)” value was -0.177. For TTTAGGA, the “uncleaved DNA left (log2)” value was 0.104. With GATCTTT the “uncleaved DNA left (log2)” value was -0.0784. CCAACCA was tested, and the “uncleaved DNA left (log2)” value was 0.051. In the case of TTACTCT, the “uncleaved DNA left (log2)” value was -0.0924. For TATAAGG, the “uncleaved DNA left (log2)” value was 0.154. With ATTGTCT the “uncleaved DNA left (log2)” value was -0.0726. With TCAGACC the “uncleaved DNA left (log2)” value was 0.0939. TGCCCTC was tested, and the “uncleaved DNA left (log2)” value was -0.165. In the case of ACGCATA, the “uncleaved DNA left (log2)” value was -0.00674. With AATAAGG the “uncleaved DNA left (log2)” value was 0.216. With TTCGATT the “uncleaved DNA left (log2)” value was 0.176. GGACGGC was tested, and the “uncleaved DNA left (log2)” value was -0.0437. In the case of CCCTTGA, the “uncleaved DNA left (log2)” value was -0.1. TACGTGG was tested, and the “uncleaved DNA left (log2)” value was 0.0165. TATCCAG was tested, and the “uncleaved DNA left (log2)” value was 0.0238. GTGCGAT was tested, and the “uncleaved DNA left (log2)” value was 0.00655. CGTATTG was tested, and the “uncleaved DNA left (log2)” value was -0.156. With TGCGTAA the “uncleaved DNA left (log2)” value was -0.0113. For TTTGCCT, the “uncleaved DNA left (log2)” value was -0.083. In the case of ATCGGAA, the “uncleaved DNA left (log2)” value was 0.0157. For CCGTGTC, the “uncleaved DNA left (log2)” value was -0.139. With GTTCCAG the “uncleaved DNA left (log2)” value was -0.021. In the case of CACGGAC, the “uncleaved DNA left (log2)” value was 0.0869. With CGCACAG the “uncleaved DNA left (log2)” value was -0.0908. With TTGAGCC the “uncleaved DNA left (log2)” value was -0.122. In the case of GACAGGG, the “uncleaved DNA left (log2)” value was 0.0744. TTACTCA was tested, and the “uncleaved DNA left (log2)” value was -0.0297. CTTCTGC was tested, and the “uncleaved DNA left (log2)” value was -0.0616.
